Source: US20200085917A1 (UNIVERSITY OF PITTSBURGH OF THE COMMONWEALTH SYSTEM OF …, published 2020)

Tests used:
Test in all cases: GST pull-down, LC-MS/MS
[1] = target: T1, Slc6a11_IPI:IPI00136867.1 (mouse, UniProt P31650 1-627)
T1 sequence (looked up): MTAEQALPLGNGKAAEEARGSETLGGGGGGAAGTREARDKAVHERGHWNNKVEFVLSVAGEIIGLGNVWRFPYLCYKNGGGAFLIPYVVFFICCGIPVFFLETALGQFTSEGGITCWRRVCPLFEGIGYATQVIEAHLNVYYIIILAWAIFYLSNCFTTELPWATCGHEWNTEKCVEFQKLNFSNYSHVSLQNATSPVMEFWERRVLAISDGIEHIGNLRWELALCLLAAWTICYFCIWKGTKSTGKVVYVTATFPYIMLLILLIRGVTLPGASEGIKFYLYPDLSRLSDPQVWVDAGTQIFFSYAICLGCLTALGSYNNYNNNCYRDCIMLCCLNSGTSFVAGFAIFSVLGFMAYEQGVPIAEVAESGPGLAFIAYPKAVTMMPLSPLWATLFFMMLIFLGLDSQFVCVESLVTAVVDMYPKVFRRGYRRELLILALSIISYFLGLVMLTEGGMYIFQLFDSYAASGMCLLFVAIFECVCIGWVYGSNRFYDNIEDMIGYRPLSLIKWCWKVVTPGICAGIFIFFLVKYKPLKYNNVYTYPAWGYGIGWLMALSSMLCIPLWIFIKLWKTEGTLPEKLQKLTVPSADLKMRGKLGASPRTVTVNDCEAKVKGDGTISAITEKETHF
Protocol: (§1) Extracts were spun at 14,000 r.p.m. at 4° C., and clarified supernatants were incubated with glutathione 4B Sepharose beads (GE Healthcare) at 4° C. overnight. The glutathione beads were then washed extensively with ice-cold TNE buffer, and bound proteins were subjected to SDS-PAGE followed by immunoblotting analysis. For the samples subjected to mass spectrometry, glutathione bead-bound proteins from equal amounts (600 μg) of mitochondria were further washed with high stringency RIPA buffer following TNE buffer wash to decrease nonspecific interaction. Proteins were then eluted from the glutathione beads in SDS sample buffer, separated by SDS-PAGE and stained with Coomassie. Proteins in the gel were digested with trypsin and analyzed by mass spectrometry (LC-MS/MS) at the Taplin Biological Mass Spectrometry Facility (Harvard Medical School, Boston, Mass.).

[2] = target: T2, Ywhaq_IPI:IPI00408378.4 (mouse, UniProt P68254 1-245)
T2 sequence (looked up): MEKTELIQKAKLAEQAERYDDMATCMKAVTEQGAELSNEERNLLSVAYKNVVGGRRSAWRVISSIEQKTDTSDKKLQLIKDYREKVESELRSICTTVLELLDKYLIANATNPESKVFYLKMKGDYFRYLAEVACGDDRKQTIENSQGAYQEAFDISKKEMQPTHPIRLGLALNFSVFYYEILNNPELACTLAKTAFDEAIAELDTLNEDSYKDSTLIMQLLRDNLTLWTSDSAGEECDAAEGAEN
Protocol: as §1

[3] = target: T3, Gbas_IPI:IPI00115827.1 (mouse, UniProt O55126 28-281)
T3 sequence (looked up): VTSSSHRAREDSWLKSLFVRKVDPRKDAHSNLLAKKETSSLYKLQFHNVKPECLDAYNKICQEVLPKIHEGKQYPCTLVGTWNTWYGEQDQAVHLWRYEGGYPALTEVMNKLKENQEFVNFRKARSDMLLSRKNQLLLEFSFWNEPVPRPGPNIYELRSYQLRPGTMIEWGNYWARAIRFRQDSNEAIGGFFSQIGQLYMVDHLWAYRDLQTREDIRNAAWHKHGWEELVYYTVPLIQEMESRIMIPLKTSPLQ
Protocol: as §1

[4] = target: T4, Acsl6_IPI:IPI00123390.8 (mouse, UniProt Q91WC3 1-697, limits assumed)
T4 sequence (looked up): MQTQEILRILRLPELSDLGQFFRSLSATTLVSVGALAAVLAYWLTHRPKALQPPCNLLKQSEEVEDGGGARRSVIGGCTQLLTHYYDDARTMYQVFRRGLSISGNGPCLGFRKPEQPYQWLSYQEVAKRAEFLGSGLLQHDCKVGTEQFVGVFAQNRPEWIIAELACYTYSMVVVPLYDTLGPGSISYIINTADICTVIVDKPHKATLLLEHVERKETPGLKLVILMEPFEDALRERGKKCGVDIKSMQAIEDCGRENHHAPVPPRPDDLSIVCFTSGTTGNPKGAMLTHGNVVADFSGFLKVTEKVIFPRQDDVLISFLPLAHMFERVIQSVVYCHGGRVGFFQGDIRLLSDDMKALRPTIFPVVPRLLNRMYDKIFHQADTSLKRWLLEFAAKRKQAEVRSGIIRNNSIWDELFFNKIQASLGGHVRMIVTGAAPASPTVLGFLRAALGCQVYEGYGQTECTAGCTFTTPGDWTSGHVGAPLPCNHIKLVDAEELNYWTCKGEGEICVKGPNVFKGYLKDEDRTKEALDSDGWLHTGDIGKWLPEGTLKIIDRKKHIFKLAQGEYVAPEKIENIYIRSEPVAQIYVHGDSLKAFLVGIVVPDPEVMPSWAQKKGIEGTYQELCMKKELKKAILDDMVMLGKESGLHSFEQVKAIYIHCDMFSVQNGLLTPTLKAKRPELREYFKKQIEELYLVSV
Protocol: as §1

[5] = target: T5, Asrgl1_IPI:IPI00223875.1 (mouse, UniProt Q8C0M9 1-326, limits assumed)
T5 sequence (looked up): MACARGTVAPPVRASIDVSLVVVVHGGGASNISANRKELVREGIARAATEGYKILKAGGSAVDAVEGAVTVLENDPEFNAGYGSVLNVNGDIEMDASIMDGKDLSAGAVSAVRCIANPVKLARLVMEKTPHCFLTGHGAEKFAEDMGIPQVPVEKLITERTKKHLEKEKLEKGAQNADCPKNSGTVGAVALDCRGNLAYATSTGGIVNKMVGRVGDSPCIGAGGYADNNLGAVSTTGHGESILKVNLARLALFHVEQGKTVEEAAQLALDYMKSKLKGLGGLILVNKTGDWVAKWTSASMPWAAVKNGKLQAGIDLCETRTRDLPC
Protocol: as §1

binding result [1]: no binding | binding result [2]: no binding | binding result [3]: no binding | binding result [4]: no binding | binding result [5]: no binding
B1: GST alone (other)
chain: not shown
notes: Negative control of the pull-downs; also called control GST
